Results taken from PubChem BioAssay AID2546 (National Center for Advancing Translational Sciences (NCATS), 2010).
In all, about 310,000 compounds went through this assay and about 11,000 (3.5%) were called active. The inconclusive results got no clear call from the source; some entries with a clear call stand among them for comparison. Calls come from the whole dose curve; as a rule, active = well fitted inhibition curve with a large enough effect; inconclusive = small, poorly fitted or top-dose-only effect, or effect the other way; inactive = flat fitted curve, though single readings scatter. No potency is given beside an inconclusive call; the fits are too rough.
% is set by controls: 0 for no effect and ±100 for the full control effect; potency is the fitted concentration of half-maximal effect; tags give direction and shape of the fitted curve.

Test: VP16 counterscreen qHTS for inhibitors of ROR gamma transcriptional activity;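 note: Gal4-VP16 expression switched on by copper sulfate through the metallothionein promoter; nearly all actives have a fitted effect of over 50% in size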
Settings: Drosophila S2 Gal4-VP16 UAS-luciferase, luminescence, 20 h; activity, negative = inhibition: at 53.6 µM (top of the series)
With Clc1ccc(-c2nnsc2SCc2ccccc2)cc1 the Potency was inconclusive [activator, single point]. In the case of Cc1ccc(-n2nc(C)c3c2NC2=C(C(=O)CC(C)(C)C2)C3c2ccccc2OCC(=O)O)cc1 (configuration not stated), the Potency is reported as “inactive”. With Cc1cc(=O)[nH]c(N/N=C2/CCCC/C2=C\c2ccccc2)n1 the Potency was active: 17.8 µM. In the case of COc1ccc(NC(=O)/C=C/c2cccc(Br)c2)cn1, the Potency is reported as inconclusive [inhibitor, partial curve]. In the case of Cc1ccc(CC2SC(=Nc3ccccc3)N(c3ccccc3)C2=O)cc1 (configuration not stated), the Potency is reported as “inactive”. With CC(=O)c1ccc(N2CCN(C(=O)COc3ccc(F)cc3)CC2)c(F)c1 the Potency was inconclusive [inhibitor, single point]. With Cc1onc(-c2ccccc2Cl)c1C(=O)Nc1sc2c(c1C#N)CCC2 the Potency was inconclusive [inhibitor, single point]. For CC(C)[n+]1ccn(C2=C([O-])c3ccccc3C(=O)/C2=N\S(=O)(=O)c2ccccc2)c1, the Potency was inconclusive [inhibitor, single point]. With O=C(Nc1ccccc1Cl)c1ccccc1S(=O)(=O)c1ccccc1[N+](=O)[O-] the Potency was inconclusive [activator, full curve, poor fit]. With Oc1ccc(/C=N/Nc2nc(N3CCCCCC3)nc(N3CCCCCC3)n2)c(O)c1 the Potency was inconclusive [inhibitor, single point]. With CC(=O)N1CC[n+]2c(-c3ccc(Cl)cc3Cl)csc21 the Potency was inconclusive [inhibitor, single point]. With Cc1ccc(S(=O)(=O)NCCc2ccncc2)cc1C the Potency was “inactive”. In the case of Cc1ccc(N=Cc2cc(Cl)cc(Cl)c2O)nc1, the Potency is reported as inconclusive [inhibitor, single point]. For COc1ccc(/C=C2\SC(=S)N(CCCC(=O)Nc3cc(C)on3)C2=O)cc1OC, the Potency was active: 5.01 µM. In the case of CCC(C)Sc1nc2c(c(=O)[nH]c(=O)n2C)n1CCc1ccccc1 (configuration not stated), the Potency is reported as “inactive”. With Cc1csc2c(N3CCC(C(=O)O)CC3)ncnc12 the Potency was “inactive”. With C=C1CCN(C(CC(C)C)C(=O)N2CCOCC2)S(=O)(=O)c2ccccc21 (configuration not stated) the Potency was “inactive”. With Cc1ccccc1CS(=O)(=O)c1ncc(Cl)c(C(=O)Nc2ccc(F)cc2)n1 the Potency was inconclusive [inhibitor, single point]. With COc1ccc(/C=N/Nc2cc(C)nc(NS(=O)(=O)c3ccc(C)cc3)n2)cc1 the Potency was “inactive”. In the case of CCCc1nnc(NC(=O)c2cc3ccccc3o2)s1, the Potency is reported as inconclusive [activator, full curve, poor fit]. With CCOc1ccc(OCC)c(S(=O)(=O)NCCOC23CC4CC(CC(C4)C2)C3)c1 the Potency was inconclusive [inhibitor, single point]. With CC(C)(C)C1CCc2c(sc3nc(SCC(=O)O)nc(N)c23)C1 (configuration not stated) the Potency was inconclusive [inhibitor, partial curve]. For Nc1ccc(CCc2nc3ccccc3o2)cc1, the Potency was inconclusive [inhibitor, full curve]. For C=Cc1c(C)c2cc3[nH]c(cc4nc(cc5nc(cc1[nH]2)C(C)=C5CCC(=O)O)C(CCC(=O)O)=C4C)c(C)c3C=C, the Potency was inconclusive [inhibitor, partial curve, poor fit]. With CC1(C)Cc2nc3nc(SCC(=O)NCCc4ccccc4)n(-c4ccccc4)c(=O)c3cc2CO1 the Potency was “inactive”. With CCc1ccc(Nc2nc(N)nc(CSc3nc4ccccc4s3)n2)cc1 the Potency was inconclusive [inhibitor, single point]. For C=CCc1cccc(/C=N/NC(=O)c2ccccc2OC)c1O, the Potency was active: 1.26 µM. For Cc1nnsc1C(=O)N/N=C/c1ccc2ccccc2c1O, the Potency was active: 2.82 µM. In the case of CCCCSc1nc(C)cc(SCC(=O)N/N=C/c2cccc(OC)c2O)n1, the Potency is reported as active: 1 µM. With S=C(NCc1ccccc1Cl)NC1CCCC1 the Potency was active: 8.91 µM. For O=[N+]([O-])c1cc(C(F)(F)F)cc([N+](=O)[O-])c1NCCNC(=S)Nc1ccc(Cl)c(Cl)c1, the Potency was inconclusive [inhibitor, single point]. In the case of CCN(CC)C1CC(=O)N(c2ccc(Br)cc2)C1=O (configuration not stated), the Potency is reported as active: 17.8 µM. For Cc1cc(C)nc(SCC(=O)Nc2nc(-c3ccccc3)c(-c3ccccc3)o2)n1, the Potency was active: 20 µM. In the case of Nc1ccccc1C(=O)NCc1ccccc1, the Potency is reported as “inactive”. For O=C(N/N=C/C=C/c1ccccc1)c1ccc(Br)cc1, the Potency was active: 4.47 µM. For COC(=O)c1[nH]c2cc(C)ccc2c1NC(=O)CN1CCOCC1, the Potency was “inactive”. In the case of COc1ccc(/C=N/OCC(=O)Nc2nc3ccccc3s2)cc1, the Potency is reported as inconclusive [activator, partial curve, poor fit]. For COC(=O)C1=C(Nc2ccccc2NC(=O)c2ccccc2C(=O)O)CSC1, the Potency was inconclusive [inhibitor, partial curve, poor fit]. In the case of COc1cc(OC)cc(-c2nnc3n2N=C(c2cc(OC)ccc2OC)CS3)c1, the Potency is reported as “inactive”. For C=C(C)C(O)/C=C/c1cccc(OC)c1 (configuration not stated), the activity, negative = inhibition was inactive: 29.9% [at 10 µM]. In the case of CN(C(=O)COC(=O)C1CCN(S(=O)(=O)c2cccs2)CC1)C1CCS(=O)(=O)C1 (configuration not stated), the Potency is reported as inconclusive [activator, single point]. With Cc1ccc2nc(SCC(=O)Nc3ccccc3N3CCOCC3)c(C#N)cc2c1 the Potency was inconclusive [inhibitor, single point]. For CC(C)c1nc(SCC(=O)Nc2ccc([N+](=O)[O-])cc2Br)n[nH]1, the Potency was “inactive”. With COc1cccc(/C=N/Nc2ncnc(N)c2[N+](=O)[O-])c1OC the Potency was inconclusive [inhibitor, full curve]. With C=CCSc1nnc(-c2ccc([N+](=O)[O-])cc2)o1 the Potency was inconclusive [activator, single point]. For CC(C)C(=O)NC(c1ccccc1)c1cc([N+](=O)[O-])c2cccnc2c1O (configuration not stated), the Potency was inconclusive [inhibitor, single point]. In the case of COc1ccc(CCN(C)C(=S)NC(=O)c2ccc(F)cc2Cl)cc1OC, the Potency is reported as active: 3.98 µM.
